# Measured values: PubChem BioAssay (NCATS)
# Several values for one entry are separate records, joined by “and”; a condition that tells them apart may be missing. Equal values may be shown once. Inconclusive means that the source gave no clear call. Such entries were picked first, then a sample of the others. Potencies of inconclusive entries are doubtful fits and often do not repeat. Activity calls are given as the source filed them. Calls follow the shape of the dose curve; as a rule, active = well fitted curve in the direction sought with a large enough effect; inconclusive = small, poorly fitted or top-dose-only effect, or another doubt; inactive = no such curve, though single readings can be large; an effect the other way counts as inactive or inconclusive.
# Assays:
# [1] = qHTS for Inhibitors of Plasmodium falciparum (DD2) proliferation (AID 504314); settings: P. falciparum Dd2 in erythrocytes, SYBR Green growth, 72 h; series mostly up to 6.11 µM
# Summary of the method: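 Erythrocytes infected with P. falciparum Dd2 (0.3% parasitemia, 2.5% hematocrit) exposed to compound 72 h at 37C, 5% CO2. Parasite DNA quantified by SYBR Green fluorescence after saponin/Triton lysis overnight; normalized to 0.29 uM artemisinin and DMSO.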
# [2] = qHTS for Inhibitors of Plasmodium falciparum (GB4) proliferation (AID 504315); also: nearly all actives have a fitted effect of over 50% in size; settings: P. falciparum GB4 in erythrocytes, SYBR Green DNA, 72 h; activity change, negative = inhibition: at 6.7 µM (top of the series)
# Summary of the method: (§1)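 Erythrocytes infected with P. falciparum line (0.3% parasitemia, 2.5% hematocrit final) incubated with compounds 72 h at 37 °C, 5% CO2; SYBR Green lysis buffer added, fluorescence read next day. Normalized to 0.29 uM artemisinin and DMSO.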
# [3] = qHTS for Inhibitors of Plasmodium falciparum (7G8) proliferation (AID 504316); also: nearly all actives have a fitted effect of over 65% in size; settings: P. falciparum 7G8 in erythrocytes, SYBR Green DNA, 72 h; activity change, negative = inhibition: at 6.7 µM (top of the series)
# Summary of the method: as §1
# [4] = qHTS for Inhibitors of Plasmodium falciparum (HB3) proliferation (AID 504318); also: nearly all actives have a fitted effect of over 60% in size; settings: P. falciparum HB3 in erythrocytes, SYBR Green DNA, 72 h; activity change, negative = inhibition: at 7.21 µM (top of the series)
# Summary of the method: as §1
# Potency is read from the fitted curve at half-maximal effect; tags tell the direction and shape of the fitted curve.
SMILES,Potency [1],Potency [2],Potency [3],Potency [4]
CCOC(=O)CN1C(=O)[C@@]2(CC(C)=CC[C@@H](COc3ccccc3)O2)c2ccccc21,"inconclusive: 4.75 µM [inhibitor, partial curve, poor fit]","inconclusive: 4.78 µM [inhibitor, single point]","inconclusive: 3.01 µM [inhibitor, partial curve, poor fit]","inconclusive: 0.536 µM [inhibitor, full curve, poor fit]"
CC(=O)OC[C@H]1O[C@H](CCON=C(C)CCN2CCc3nc(-c4ccccc4)c(-c4ccccc4)cc3C2)C=C[C@H]1OC(C)=O,"inconclusive: 3.78 µM [inhibitor, single point]","inconclusive: 1.51 µM [inhibitor, partial curve]",active: 1.51 µM,"inconclusive: 1.9 µM [inhibitor, single point]"
COc1ccc(-c2nc(-c3ccccc3)c(NC(C)C)o2)cc1,active: 1.69 µM,active: 1.51 µM,active: 1.51 µM,"inconclusive: 1.69 µM [inhibitor, partial curve]"
C[C@H]1CC[C@H]2C(=O)N(Cc3cccc([N+](=O)[O-])c3)C[C@H](O)CN2[C@H]1c1cccc(Br)c1,"inconclusive: 1.89 µM [inhibitor, single point]","inconclusive: 2.13 µM [inhibitor, single point]","inconclusive: 1.9 µM [inhibitor, single point]","inconclusive: 1.69 µM [inhibitor, partial curve]"
COC(=O)CC=C[C@@H](C)[C@H](OC)c1c(Br)ccc2c1OCO2,"inconclusive: 0.845 µM [inhibitor, partial curve, poor fit]",inactive,"inconclusive: 2.4 nM [activator, full curve, poor fit] and inactive",inactive
COC(=O)c1ccc(CN2C(=O)[C@@]3(CC(C)=C[C@@H](COc4ccccc4)O3)c3ccccc32)cc1,"inconclusive: 4.24 µM [inhibitor, partial curve, poor fit]","inconclusive: 1.9 µM [inhibitor, single point]","inconclusive: 1.9 µM [inhibitor, single point]","inconclusive: 3.38 µM [inhibitor, single point]"
COc1ccc([C@]23Cc4ccccc4[C@H](O2)C2=C(CC(C)(C)CC2=O)O3)cc1,"inconclusive: 4.24 µM [inhibitor, single point]","inconclusive: 1.51 µM [inhibitor, single point]","inconclusive: 3.01 µM [inhibitor, single point]","inconclusive: 1.9 µM [inhibitor, partial curve]"
COc1cc2c(cc1OC)[C@@H]1O[C@](c3ccsc3)(C2)OC2=C1C(=O)CC(C)(C)C2,"inconclusive: 2.67 µM [inhibitor, single point]","inconclusive: 1.51 µM [inhibitor, single point]","inconclusive: 1.69 µM [inhibitor, partial curve]","inconclusive: 1.9 µM [inhibitor, single point]"
Brc1ccc2c(c1)c1cc(Br)ccc1n2CC1CO1 (centres undefined),"inconclusive: 3 µM [inhibitor, single point]","inconclusive: 2.13 µM [inhibitor, single point]",active: 1.69 µM,"inconclusive: 1.9 µM [inhibitor, single point]"
CC(C)=CCN1C(=O)[C@@]2(CC(C)=CC[C@@H](COc3ccccc3)O2)c2ccccc21,"inconclusive: 4.24 µM [inhibitor, single point]","inconclusive: 4.26 µM [inhibitor, single point]",active: 2.69 µM,"inconclusive: 1.2 µM [inhibitor, partial curve]"
COc1ccc(-c2nc3c(c4c2C[C@H](c2ccccc2)OC4)CN(S(=O)(=O)c2ccc(NC(C)=O)cc2)CC3)c(C)c1,"inconclusive: 4.24 µM [inhibitor, single point]",inactive,"inconclusive: 1.51 µM [inhibitor, partial curve] and inconclusive: 4.26 µM [inhibitor, single point]","inconclusive: 4.26 µM [inhibitor, single point] and inconclusive: 1.9 µM [inhibitor, partial curve, poor fit]"
COC(=O)CC=C[C@@H](C)[C@H](NC(=O)OCC(Cl)(Cl)Cl)c1ccc(-c2ccccc2)cc1,"inconclusive: 4.24 µM [inhibitor, single point]","inconclusive: 1.51 µM [inhibitor, partial curve]","inconclusive: 1.9 µM [inhibitor, single point]","inconclusive: 4.26 µM [inhibitor, single point]"
COCOc1ccc(Br)cc1C(=O)[C@@H]1O[C@@H]1c1cccc(OC)c1,"inconclusive: 1.5 µM [inhibitor, partial curve, poor fit]",inactive,"inconclusive: 1.69 µM [inhibitor, single point]","inconclusive: 2.13 µM [inhibitor, partial curve]"
C[C@@H]1C(c2ccccc2)=CC(=O)c2nc3ccccc3cc2[C@@H]1C(=O)N1CCCC1,"inconclusive: 1.34 µM [inhibitor, partial curve]","inconclusive: 1.69 µM [inhibitor, single point]","inconclusive: 0.601 µM [inhibitor, partial curve]","inconclusive: 1.69 µM [inhibitor, partial curve]"
COC(=O)c1ccccc1S(=O)(=O)N1CCc2nc(-c3ccc(OC)cc3C)c3c(c2C1)CO[C@@H](c1ccccc1)C3,"inconclusive: 0.293 µM [inhibitor, partial curve, poor fit]","inconclusive: 3.38 µM [inhibitor, single point]","inconclusive: 1.9 µM [inhibitor, single point]","inconclusive: 1.9 µM [inhibitor, partial curve]"
COC(=O)C1=C(C(=O)OC)[C@@H]2N(C)c3ccccc3[C@@]23C[C@@H](C(=O)OC)N(C(=O)NC2CCCC2)C3=N1,"inconclusive: 3 µM [inhibitor, partial curve, poor fit]","inconclusive: 0.0135 µM [activator, full curve, poor fit]","inconclusive: 1.9 µM [inhibitor, single point]",inactive
